The results in this text go back to article PMC10668032.

Some of the results follow. At the low end of the ranking the order means little.

The experiment has as its target SIX1 homeodomain (reference allele) (UniProt Q15475). Put plainly: universal protein binding microarray. The conditions noted are these: Universal all-10-mer PBM (8x60K, AMADID 030236), 300 nM GST-tagged protein, Alexa Fluor 488 anti-GST; buffer, salt, pH and temperature not stated; high values mean tight binding; most listed sequences are background and not binding sites; double strand, one strand shown.
Take ACGCCAGT: the binding signal was 0.0282 E-score.

For CCGTGCTA, the binding signal is -0.149 E-score. Take TCCGCGCA: the binding signal was -0.0491 E-score. For ACCGAACC, the binding signal is -0.0494 E-score. With AGTCCTCA the figure was -0.0846 E-score; with GGACACAA, 0.0336 E-score; with GAAGGTCC, -0.172 E-score. Turning to AACCTAGG, the binding signal is -0.103 E-score.

For ACGGGAAC, the binding signal is -0.137 E-score. ATAAAGAA: the binding signal was -0.00534 E-score.

In the case of GAATTATA, the binding signal was 0.054 E-score. CCACCGAG: the binding signal is -0.0381 E-score.

As to TAATATGA, the binding signal was determined as 0.196 E-score. With AGCTCTGA the figure was -0.12 E-score; with ATTATTAC, 0.0883 E-score; with CACACGCC, -0.0621 E-score. CTAGGGCC: the binding signal was -0.274 E-score. For the sequence CGTAGACA, the binding signal is -0.23 E-score. Turning to AGCCGACG, the binding signal is -0.0518 E-score.

Regarding CCGCATTA, the binding signal was found to be 0.157 E-score. In the case of AGAAATTG, the binding signal was -0.205 E-score. Regarding GGGACTTA, the binding signal was -0.273 E-score. Turning to AGACTTGG, the binding signal is -0.196 E-score. For AGCACGTA, the binding signal is 0.0461 E-score. As for CTAGTCAG, the binding signal is -0.0589 E-score.

TATTGGCA: the binding signal was 0.223 E-score. As to GCCGATAA, the binding signal was determined as 0.0925 E-score. As for GCAGCCCC, the binding signal was determined as 0.0292 E-score. CGTCCTGC: the binding signal is -0.0398 E-score. As to GGACATCA, the binding signal was -0.354 E-score.

With AATTTGAG, the binding signal is -0.0286 E-score. Take CCACATTA: the binding signal is -0.151 E-score. For CAGGTATG, the binding signal turned out to be 0.0947 E-score.

In the case of ACCCGATA, the binding signal stood at 0.4 E-score. Turning to GTATCGTA, the binding signal was 0.423 E-score. In the case of CCAAGGAA, the binding signal is -0.0173 E-score. As to GCAGGATA, the binding signal was determined as 0.329 E-score. As for ACACCGCC, the binding signal was found to be 0.321 E-score.

As for ATCCGGGC, the binding signal was 0.356 E-score. As for CGCGGTAA, the binding signal amounted to 0.00277 E-score. Consider AGGTCGAC, for which the binding signal was -0.0928 E-score.

Turning to ACATTCGC, the binding signal is -0.215 E-score. The same measure for AATGACCA: -0.172 E-score; for AACAGCTC: -0.124 E-score. Turning to GCTTGAAC, the binding signal worked out at 0.0493 E-score. With GCCTAGCC, the binding signal is -0.105 E-score. With ACAGCTTA, the binding signal is -0.185 E-score. With CATGTGCC the figure was -0.149 E-score. Take CGCCACAA: the binding signal was -0.148 E-score. ACCGGTTC: the binding signal is -0.0619 E-score. For the sequence ACTCTAAA, the binding signal is -0.129 E-score.

In the case of CGTGTTAG, the binding signal was 0.028 E-score. For the sequence GTCAAAAC, the binding signal was -0.239 E-score. Consider ATTAGCCC, for which the binding signal was -0.156 E-score. Take GAGGGATA: the binding signal was determined as 0.412 E-score.

Take CACCGGTG: the binding signal stood at 0.196 E-score. GATTCTCC: the binding signal worked out at 0.0562 E-score. For the sequence ATCCCAGG, the binding signal worked out at 0.246 E-score.

Take CCCCGACC: the binding signal came to 0.0718 E-score. With AATTCGGG, the binding signal worked out at 0.0243 E-score.

On to AGGTGGTC, for which the binding signal was determined as 0.00885 E-score. With GAATAAAA, the binding signal was -0.255 E-score. GCTAGCCC: the binding signal is -0.161 E-score. Regarding CCATGTGA, the binding signal is 0.122 E-score. As for ACACCACG, the binding signal was determined as 0.263 E-score.

In the case of CGCCCGAG, the binding signal is -0.0287 E-score.

With AAGCTGCG, the binding signal was -0.101 E-score. For ATGACAGG, the binding signal is -0.127 E-score. In the case of AAACTAAC, the binding signal was -0.0834 E-score. For GAGGGTCC, the binding signal is -0.0976 E-score.

As to AAGGCGTC, the binding signal turned out to be 0.0089 E-score. On to ATCCGTAG, for which the binding signal came out at 0.225 E-score. For the sequence CAGACGAC, the binding signal is -0.0852 E-score. The same measure for AGTCAAGC: -0.29 E-score; for ATGTTGTG: -0.101 E-score; for AGTAGGTA: -0.0689 E-score.

Regarding ACTCGTCA, the binding signal is -0.179 E-score. The same measure for AGCGTAGG: -0.16 E-score.

Regarding GAAAGTAA, the binding signal was -0.247 E-score.

On to ATTGAGTC, for which the binding signal was -0.0942 E-score.

In the case of AACATAGC, the binding signal stood at 0.00249 E-score.

As for CAGCCCTG, the binding signal was -0.149 E-score. With CGGACGTA the figure was -0.0342 E-score.

In the case of CGACACGA, the binding signal was determined as 0.144 E-score. As for GCTTAATA, the binding signal stood at 0.169 E-score. For GAACGTGC, the binding signal is -0.242 E-score. Regarding CGTTCATC, the binding signal turned out to be 0.0166 E-score. For CGACCGGA, the binding signal was 0.0691 E-score.

Take CCGATGTA: the binding signal stood at 0.00377 E-score. CATTATGA: the binding signal amounted to 0.0814 E-score. With GAACTTGC the figure was -0.383 E-score. In the case of CTGCTCTA, the binding signal was -0.0529 E-score. The same measure for CCATGGGA: 0.117 E-score; for ATCTCATA: 0.246 E-score.

With AAACGCAA, the binding signal is -0.169 E-score. The same measure for CGGCCCCA: -0.0943 E-score; for AAGTTCTA: -0.105 E-score.

In the case of GGTGTCGA, the binding signal was found to be 0.408 E-score. With ATGAAGAA the figure was -0.0444 E-score; with GAATCAGC, -0.0801 E-score; with GTGAAAGA, 0.0314 E-score. Consider CCAGGGTC, for which the binding signal is -0.133 E-score.

As to CCCAAGGA, the binding signal amounted to 0.111 E-score. In the case of AAAGCCCT, the binding signal is -0.32 E-score. As for TCCGATAA, the binding signal turned out to be 0.223 E-score. Regarding AGGAGGGA, the binding signal is 0.0873 E-score.

Take ACCGTCTG: the binding signal is -0.0585 E-score. The same measure for GGACCCTA: -0.064 E-score; for TCGAAACA: 0.0762 E-score; for GGCCCAGA: -0.116 E-score.
